The source of these data is paper PMC6212790.

Some of the results follow. At the low end of the ranking the order means little.

This experiment deals with T1, GST-Rok-C97-191 (UniProt O34857).
T1 sequence: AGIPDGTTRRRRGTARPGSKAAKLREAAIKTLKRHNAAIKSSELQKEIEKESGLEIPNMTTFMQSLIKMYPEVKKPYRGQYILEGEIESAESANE
The experiment in a line: protein binding microarray.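 Note: rank score from −0.5 (least bound) to 0.5 (best bound).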 To be noted: Rok is a gene silencer of Bacillus subtilis; high values mean tight binding; most listed sequences are background and not binding sites; double strand, one strand shown.
As for ATTGTACA, the binding signal turned out to be 0.286 E-score. For the sequence GGCCATAC, the binding signal was -0.00763 E-score. With AGTGGTTA, the binding signal worked out at 0.12 E-score. With ACGGCGGA the figure was -0.278 E-score. For the sequence CGCACTCC, the binding signal is -0.328 E-score.

Take GACAGGCA: the binding signal is -0.106 E-score.

Take CGGAGCCA: the binding signal was -0.155 E-score.

For CATTTGAC, the binding signal was -0.021 E-score.

Turning to ATTATCGC, the binding signal was 0.0392 E-score. With GCAGCGCA the figure was -0.0708 E-score; with ATAATTCG, 0.213 E-score. For CAGTCAGC, the binding signal is -0.115 E-score. In the case of ATAACCGG, the binding signal was -0.0804 E-score. Turning to CCCGCAAG, the binding signal was -0.354 E-score.

Regarding CAGTATTA, the binding signal was 0.188 E-score. Sequence TATGCCAA showed a binding signal of 0.00682 E-score.

As for ATCATTAA, the binding signal is 0.214 E-score. With ACGTATTG the figure was 0.181 E-score; with CCTATTGC, -0.125 E-score; with CCGCTATC, -0.142 E-score. Take CACGCTGA: the binding signal is -0.223 E-score.

ACCTTAAT came in with a binding signal of 0.0432 E-score. With ATACTAAG the figure was 0.0856 E-score; with AACGGATT, -0.128 E-score; with GTCGTCAA, -0.152 E-score. On to AAGCTGGC, for which the binding signal was -0.16 E-score. With AACATCTA the figure was 0.165 E-score; with CCGGGTAA, -0.0258 E-score; with CAAGCTTG, -0.0348 E-score. With AGAACAAT the figure was 0.137 E-score; with CCATTGCG, -0.135 E-score. Consider AGTCTGCG, for which the binding signal was -0.00759 E-score. Regarding AAAGAGAC, the binding signal was -0.105 E-score. AGGGATGC: the binding signal is -0.18 E-score.

With CTAATCTC, the binding signal is 0.0569 E-score. With ATGGTGCG the figure was -0.0845 E-score; with ACGGAGTA, 0.161 E-score; with TCGCCGAA, -0.0816 E-score. GAAGAGGA: the binding signal is -0.151 E-score.

As for ACATATTC, the binding signal came to 0.23 E-score.

Regarding AGGGAAGG, the binding signal is -0.126 E-score.

Regarding CAGAGAGC, the binding signal is -0.177 E-score.

Regarding AGCGAGTA, the binding signal is 0.148 E-score. Sequence AAACTTCT yielded a binding signal of 0.237 E-score. On to AGCTCACC, for which the binding signal was -0.17 E-score.

GGTATAAA displayed a binding signal of 0.352 E-score. Consider AAGTCTCT, for which the binding signal was -0.0685 E-score. With CAGCCGGG the figure was -0.245 E-score; with AAGGTAAT, 0.114 E-score. In the case of AGTTGGCA, the binding signal was -0.0276 E-score.

Consider TCCTCTCA, for which the binding signal is -0.0905 E-score. Consider CTCTTGCA, for which the binding signal is -0.0711 E-score. With ATTTTCTA the figure was 0.379 E-score; with ACTCGATA, 0.17 E-score; with AATTGCTA, 0.328 E-score.

In turn, CTTCTCGC had a binding signal of 0.00395 E-score. In the case of AAGTAACT, the binding signal was found to be 0.16 E-score. As to GACTCGAA, the binding signal was -0.168 E-score. To AATGGCCT belongs -0.0459 E-score; to GTCAACCA, 0.08 E-score; to AATAAGTG, 0.079 E-score. Regarding AGAGACTA, the binding signal stood at 0.166 E-score.

For the sequence AGACTCTG, the binding signal is -0.121 E-score. As to CGCACGCG, the binding signal is -0.221 E-score. To CACCACAA belongs 0.183 E-score; to GCCTCGGA, -0.327 E-score.

On to CCTAATGC, for which the binding signal was -0.154 E-score. Take GAGTAAGA: the binding signal is -0.18 E-score. As to AGGGAAGA, the binding signal is -0.141 E-score. Consider GTTGCAGA, for which the binding signal was -0.0254 E-score. Take CCAACATA: the binding signal was determined as 0.152 E-score. On to CGTTGTGC, for which the binding signal is -0.0724 E-score.

For the sequence AGGTATCG, the binding signal came to 0.0812 E-score. Turning to CCAATACA, the binding signal was -0.0321 E-score. On to CCCTGGGC, for which the binding signal was -0.29 E-score. With AGAGGAAT, the binding signal came out at 0.0596 E-score. Consider CTAAGCTC, for which the binding signal was -0.00894 E-score.

For the sequence CGCTAATA, the binding signal stood at 0.286 E-score.

Regarding TAAGATAA, the binding signal was 0.236 E-score.

Regarding CGGGGTAA, the binding signal is -0.0979 E-score. CTGCGCGA: the binding signal is -0.108 E-score. For the sequence GCGAACTA, the binding signal turned out to be 0.252 E-score. In the case of GTGGGCCA, the binding signal was -0.234 E-score. In the case of GAGCCACC, the binding signal was -0.191 E-score. As for GTTCCGAA, the binding signal is -0.0318 E-score.

Sequence CAACCCAA gave a binding signal of 0.0668 E-score.

In the case of CGAAAGGA, the binding signal was -0.126 E-score.

The sequence AATGCTGT came in with a binding signal of 0.222 E-score.

On to ATGGACGG, for which the binding signal is -0.262 E-score. Regarding GCTCCAAA, the binding signal is -0.243 E-score.

AAATATAA came in with a binding signal of 0.269 E-score. With AAGAACGC, the binding signal is -0.116 E-score. To AAAGGAGT belongs -0.183 E-score; to CGTGGGAC, -0.153 E-score; to CAGCTATG, -0.18 E-score. On to CGATCCCG, for which the binding signal was -0.289 E-score. On to GCGAAAGA, for which the binding signal was -0.208 E-score. To GTAAATCA belongs 0.105 E-score; to CTGGTATC, 0.138 E-score; to CGAGCGGC, -0.178 E-score. For the sequence CGGACGAA, the binding signal was -0.0418 E-score.

GCATTGAA: the binding signal stood at 0.0567 E-score. On to CCGCTCCC, for which the binding signal is -0.437 E-score.

As for CGTCCCGA, the binding signal is -0.102 E-score. CTCGCAAC registered a binding signal of 0.0148 E-score. Take GACCAAGA: the binding signal is -0.0371 E-score. In the case of CAATATGG, the binding signal is -0.0224 E-score. To CACCCCCA belongs -0.145 E-score; to ATTACTGA, -0.0134 E-score. To CATCTGGA belongs -0.158 E-score; to GTTCCAAA, -0.044 E-score. Turning to AATTGCAA, the binding signal was -0.139 E-score. Turning to TCGACGAA, the binding signal is -0.205 E-score.

Sequence ATTACAAA returned a binding signal of 0.137 E-score. ACCTGCAC: the binding signal is -0.0374 E-score. Consider CAATCCTA, for which the binding signal worked out at 0.268 E-score.

In the case of GGCCACCA, the binding signal was -0.155 E-score. CTATACAC: the binding signal worked out at 0.151 E-score.

On to AATCTCGG, for which the binding signal stood at 0.0748 E-score. To CGGTAGAC belongs -0.0972 E-score; to CGGAAAAC, 0.152 E-score; to AAAAGCCC, -0.0743 E-score. For the sequence GGCTGAAA, the binding signal is 0.0758 E-score. With GATAGGAA the figure was 0.209 E-score; with ATGCATTG, -0.173 E-score; with GGCGCTAC, -0.106 E-score. Take GGATGCCA: the binding signal stood at 0.00414 E-score.

With GTTCCGTA, the binding signal was 0.194 E-score. As for TGAACCAA, the binding signal is -0.0732 E-score. As to CTCCCCCC, the binding signal is -0.361 E-score. To GGCAGTCA belongs -0.12 E-score.

On to ACACCTCG, for which the binding signal is -0.0583 E-score. In turn, CTAATTTA had a binding signal of 0.305 E-score. As for AGCTTACC, the binding signal was -0.119 E-score. For AAGGTAGC, the binding signal was 0.158 E-score. In turn, ATCCGCGA showed a binding signal of 0.0264 E-score.

With ACACACCC, the binding signal was -0.0492 E-score. Turning to CCCAGTAC, the binding signal is -0.0841 E-score.

In turn, AGAAAATG came in with a binding signal of 0.187 E-score.

As for ACCTGGTA, the binding signal amounted to 0.221 E-score. As for CACTATAG, the binding signal came out at 0.244 E-score. AATGGCAG: the binding signal is -0.0554 E-score. With AGTATAGC the figure was 0.121 E-score. On to GCTCTGGA, for which the binding signal was -0.0982 E-score. With CCTCACCC the figure was -0.16 E-score; with GACCCAAA, -0.0755 E-score. In the case of AGGAAATG, the binding signal was -0.0248 E-score. As to GCCAAACC, the binding signal is -0.202 E-score. Turning to CAATTGGG, the binding signal was -0.181 E-score. As for GCCCGACC, the binding signal is -0.355 E-score. Regarding AACCAATA, the binding signal came out at 0.0959 E-score. In the case of CAAGGTGA, the binding signal was -0.134 E-score. As to GGCCGATA, the binding signal came to 0.051 E-score. AGACGTAA: the binding signal is -0.00509 E-score. ATAAATTC: the binding signal was 0.322 E-score. Take AGGAAGAT: the binding signal was found to be 0.214 E-score. The sequence GCCCGAAC gave a binding signal of 0.169 E-score. Regarding AATGACTA, the binding signal turned out to be 0.06 E-score. Regarding AACTAAGG, the binding signal came to 0.192 E-score.
